Among all 350,000 compounds or so, about 31,000 (8.9%) were called active. This list was built around the results that the source calls inconclusive (neither active nor inactive); the mix of calls is not that of the screen. The call rests on the fitted dose curve; in most records, active means well fitted inhibition curve with a large enough effect; inconclusive means small, poorly fitted or top-dose-only effect; inactive means no such curve, though single readings can be large or run the other way. A potency beside an inconclusive call is a rough fit, not a confirmed value.
Target: Histone-lysine N-methyltransferase EHMT2 (Homo sapiens) (UniProt Q96KQ7)
Test: qHTS Assay for Inhibitors of Histone Lysine Methyltransferase G9a; further: nearly all actives have a fitted effect of over 75% in size
Conditions: G9a H3K9 monomethylation, AlphaScreen, 2 h; activity, negative = inhibition: at 59 µM (top of the series) unless noted
Method in brief: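 Methyltransferase reactions run at room temperature for 2 h (20 nM enzyme, 500 nM biotin-H3K9 peptide, 20 uM SAM) after a 15 min compound preincubation; product detected by AlphaScreen beads and anti-H3K9me1 antibody.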
On the % scale 0 is the no-effect control and ±100 the full control effect; potency means the concentration at half of the fitted maximal effect; tags describe the fitted curve by direction and shape.

Sequence of UniProt Q96KQ7 (Q96KQ7 whole entry, looked up): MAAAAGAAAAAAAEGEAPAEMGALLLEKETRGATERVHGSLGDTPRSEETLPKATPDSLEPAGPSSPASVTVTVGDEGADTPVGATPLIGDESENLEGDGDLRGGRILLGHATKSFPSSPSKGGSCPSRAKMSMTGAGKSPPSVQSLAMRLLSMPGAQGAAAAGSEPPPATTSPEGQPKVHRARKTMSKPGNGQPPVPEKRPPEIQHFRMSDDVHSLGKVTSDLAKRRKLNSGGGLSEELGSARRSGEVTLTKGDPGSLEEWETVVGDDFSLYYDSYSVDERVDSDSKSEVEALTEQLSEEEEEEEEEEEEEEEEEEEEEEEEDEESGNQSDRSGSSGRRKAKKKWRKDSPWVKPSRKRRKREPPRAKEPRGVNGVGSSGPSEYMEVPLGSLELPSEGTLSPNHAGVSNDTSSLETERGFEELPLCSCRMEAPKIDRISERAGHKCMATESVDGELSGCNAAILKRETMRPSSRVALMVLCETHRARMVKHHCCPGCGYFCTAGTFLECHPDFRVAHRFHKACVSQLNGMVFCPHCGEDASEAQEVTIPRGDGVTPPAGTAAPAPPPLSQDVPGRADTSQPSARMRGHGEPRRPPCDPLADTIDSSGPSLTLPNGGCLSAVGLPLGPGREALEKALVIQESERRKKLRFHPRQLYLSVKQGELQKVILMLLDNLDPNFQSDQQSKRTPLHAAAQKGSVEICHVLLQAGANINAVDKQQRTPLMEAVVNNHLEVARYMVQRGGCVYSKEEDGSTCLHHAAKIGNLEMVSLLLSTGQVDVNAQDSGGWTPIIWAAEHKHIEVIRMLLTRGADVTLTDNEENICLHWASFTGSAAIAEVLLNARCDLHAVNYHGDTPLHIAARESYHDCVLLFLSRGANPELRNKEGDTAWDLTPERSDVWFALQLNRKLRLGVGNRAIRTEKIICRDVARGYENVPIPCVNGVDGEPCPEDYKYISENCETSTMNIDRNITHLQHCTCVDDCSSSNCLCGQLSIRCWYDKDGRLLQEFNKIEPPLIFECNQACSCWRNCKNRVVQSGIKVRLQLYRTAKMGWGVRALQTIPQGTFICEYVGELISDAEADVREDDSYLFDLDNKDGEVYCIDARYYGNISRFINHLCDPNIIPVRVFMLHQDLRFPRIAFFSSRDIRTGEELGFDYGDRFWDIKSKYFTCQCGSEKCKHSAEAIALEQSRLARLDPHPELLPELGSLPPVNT

Compound	activity, negative = inhibition	Potency
O=C(CN1CCOCC1)N1CCN(c2nnc(-c3ccccc3)c3ccccc23)CC1	inactive: -30.7% [at 12.7 µM]	
O=C(COc1ccccc1)Nc1ccccc1Cl		inactive
COc1ccc(C(=O)NC2CCCc3c2cnn3-c2cccc(C)c2C)o1 (stereo not given)		inconclusive: 89.1 µM [inhibitor, single point]
O=C1CC(c2nc3ccccc3[nH]2)CN1c1ccccc1 (stereo not given)		inconclusive: 31.6 µM [inhibitor, partial curve, poor fit]
CN(C)C(CNC(=O)c1ccc(S(=O)(=O)Nc2ccccc2F)cc1)c1ccccc1 (stereo not given)		inconclusive: 89.1 µM [inhibitor, single point]
CCN1CCN(C(=S)NC(=O)c2cccs2)CC1		active: 50.1 µM
O=C(Nc1cc(Cl)ccc1-n1cncn1)c1ccc(Br)o1		active: 56.2 µM
Cc1cc(C(=O)COC(=O)c2ccco2)c(C)n1Cc1ccco1		inconclusive: 50.1 µM [inhibitor, partial curve, poor fit]
COc1ccc(C(=O)C[n+]2cc(Br)cc3ccccc32)cc1[N+](=O)[O-]		active: 35.5 µM
CCOC(=O)N1CCc2c(sc3c2c(=O)n(-c2ccccc2)c(=O)n3CC(=O)Nc2ccc(OC)cc2OC)C1		inactive
Cc1nnc2n(Cc3ccccc3)c(=O)c3c4c(sc3n12)CN(Cc1ccccc1)CC4		inconclusive: 31.6 µM [inhibitor, single point]
O=C(OCc1nc2ccccc2[n+]([O-])c1C(=O)c1ccccc1)c1cccs1		inconclusive: 7.94 µM [inhibitor, partial curve, poor fit]
O=C(/C=C/c1ccco1)Nc1ccccc1N1CCCC1		active: 44.7 µM
CCc1ccc(-c2cc3c(=O)n(CC(=O)NCCCN4CCN(Cc5ccccc5)CC4)nc(C)n3n2)cc1		inactive
COc1ccc(NC(=O)CC(c2ccc(F)cc2)c2ccc(OC(C)C)cc2)cc1 (stereo not given)		inconclusive: 3.55 µM [inhibitor, partial curve, poor fit]
Cn1c(SCC(=O)c2cc3ccccc3o2)nnc1-c1ccccc1		active: 11.2 µM
CCc1ccccc1N(CC)C(=O)c1cn(CC)c(=O)c2cc(OC)c(OC)cc12	inconclusive: -83.9% [inhibitor]	
O=S(=O)(c1ccc2ccccc2c1)n1nc(-c2ccco2)nc1NCc1ccc(F)cc1		active: 17.8 µM
COc1ccc(-c2[nH]c(-c3ccc(C)cc3)nc2SCC(=O)NC2CCCC2)cc1		active: 50.1 µM
O=c1ccc(-c2ccc(S(=O)(=O)Nc3ccc(F)cc3)o2)n[nH]1		inconclusive: 100 µM [inhibitor, single point]

Source: PubChem BioAssay AID504332 (National Center for Advancing Translational Sciences (NCATS), 2011)
